This is one part of the list. At the low end of the ranking the order means little.

These results are taken from PMC6212790.

In this experiment the target is T1, GST-Rok (full length) (UniProt O34857).
T1 sequence: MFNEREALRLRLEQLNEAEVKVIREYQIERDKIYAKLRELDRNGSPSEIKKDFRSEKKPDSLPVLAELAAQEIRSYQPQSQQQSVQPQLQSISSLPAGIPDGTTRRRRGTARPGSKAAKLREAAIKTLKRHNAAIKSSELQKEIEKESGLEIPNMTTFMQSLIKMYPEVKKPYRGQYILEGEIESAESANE
The experiment can be described thus: protein binding microarray.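 Also: rank score from −0.5 (least bound) to 0.5 (best bound).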 To be noted: Rok is a gene silencer of Bacillus subtilis; high values mean tight binding; most listed sequences are background and not binding sites; double strand, one strand shown.
Sequence CGCTACGC came in with a binding signal of -0.216 E-score. Under CTGAATAC stands 0.1 E-score.

As to GCGGAGAA, the binding signal was -0.0911 E-score.

ACCGGAGG: the binding signal was -0.182 E-score. In the case of ACAGATGG, the binding signal came out at 0.104 E-score. In turn, CAAGAAAC registered a binding signal of 0.148 E-score. For ACTCCTTG the value was -0.247 E-score; for AATAAGGC, -0.0153 E-score.

For the sequence CCGGGGTA, the binding signal was -0.218 E-score.

In turn, CCCCCTCG gave a binding signal of -0.487 E-score. For TAGCAATA the value was 0.258 E-score; for ACCATTCG, -0.00113 E-score. On to AAACGAGT, for which the binding signal was found to be 0.0933 E-score. For ACGCAGCA the value was -0.108 E-score; for CCGTCAGA, -0.164 E-score; for AGCTTCTC, -0.0691 E-score. Under CCTGGGTA stands -0.126 E-score; under ACCAGTAA, -0.104 E-score; under CAACCGGC, -0.0977 E-score. For TGTCTCAA the value was 0.0298 E-score; for GGTCACCA, -0.158 E-score; for GGCACCCC, -0.401 E-score. On to ATACCTGC, for which the binding signal came out at 0.18 E-score. Under CTTTATTC stands -0.0938 E-score; under CGTCCTTC, -0.209 E-score. CAGCCAAG: the binding signal was -0.181 E-score. For GATGTCGA the value was -0.123 E-score; for AGACGCGC, -0.0392 E-score; for CACTACGC, -0.0424 E-score. Under CGCTCTAG stands -0.0224 E-score. Under AATGCTTA stands 0.0405 E-score; under ATATGGGG, -0.0605 E-score; under ACCACTTA, 0.187 E-score. Take GGCCCACA: the binding signal was -0.24 E-score. Turning to ATACACTC, the binding signal stood at 0.19 E-score. Under AAACTCCG stands 0.0372 E-score; under GCTTAAAC, -0.14 E-score.

The sequence AGCTCCAC returned a binding signal of -0.16 E-score. Under CCTACTAA stands -0.00507 E-score; under AACCCTGG, -0.00184 E-score. In turn, CACCAAGA had a binding signal of -0.134 E-score.

GCGCAATA yielded a binding signal of 0.0707 E-score. Under CACCCCCG stands -0.287 E-score; under CCAACGGC, -0.32 E-score. For AGTGGGGA the value was -0.294 E-score. Under AATCTTCG stands 0.0665 E-score.

Take CATCACAG: the binding signal was -0.0903 E-score.

With TCGCTGAA, the binding signal is -0.207 E-score. Turning to AAAGTCGA, the binding signal was -0.0163 E-score.

On to ACGAGGGC, for which the binding signal was -0.278 E-score. AGGAAGGG registered a binding signal of -0.34 E-score. For AGGTTTAC the value was 0.218 E-score; for AGAAGCGC, 0.00642 E-score. For ACGTCAGT the value was -0.0487 E-score; for AAGTGGAG, -0.191 E-score; for CATTTCAG, -0.0709 E-score. For CATGGCCC the value was -0.326 E-score. For the sequence CGGGTGAG, the binding signal is -0.309 E-score.

For the sequence CCGGTAGA, the binding signal worked out at 0.229 E-score.

CTTTTTGC came in with a binding signal of -0.229 E-score. Under CGTTATGC stands 0.0931 E-score. Under GTCCACTA stands 0.0838 E-score. For CTTGGGTA the value was 0.0173 E-score. As to AATATACT, the binding signal worked out at 0.395 E-score.

As for CACGAAGC, the binding signal is -0.046 E-score. AGTAGATG had a binding signal of 0.283 E-score. Sequence CCACAAGG gave a binding signal of -0.347 E-score.

In turn, TAAGAACA had a binding signal of 0.1 E-score. For ATGTCCAC the value was 0.177 E-score.

As to AACAAGCT, the binding signal was -0.244 E-score. For ACTACGTC the value was 0.181 E-score.

TCCTGCGA displayed a binding signal of -0.243 E-score. For GGATTAAA the value was 0.0576 E-score; for TAGGTCAA, 0.207 E-score; for CTTCAGAC, -0.203 E-score. Consider ACGAGGTG, for which the binding signal stood at 0.0198 E-score. As for AAGGGCGC, the binding signal is -0.215 E-score. For AGGGTTCG the value was -0.289 E-score; for ATCGCCGA, 0.0296 E-score.

ATTAAAGG: the binding signal was -0.0538 E-score. For AAGAGACG the value was -0.161 E-score.

Sequence AGCATTCC displayed a binding signal of 0.0415 E-score.

Sequence CTGTCAAG returned a binding signal of -0.0278 E-score. GGTTCTAA yielded a binding signal of -0.053 E-score. For CCAGCAAG the value was 0.121 E-score; for ACAGCTTG, -0.0835 E-score; for AAGCTTGC, 0.039 E-score. Under ATCTCGGG stands 0.0686 E-score; under ATCGCGTC, -0.113 E-score.

The sequence AACAAGGA gave a binding signal of -0.127 E-score.

For ATTGCGGG, the binding signal is -0.118 E-score. Under GGCCCTAA stands -0.279 E-score; under CGGGTGCC, -0.275 E-score; under ATCACGTG, 0.189 E-score. Under AGAAGGGA stands -0.296 E-score; under GGCTAGCA, 0.164 E-score. For CGGCAGAC the value was -0.0742 E-score.

Regarding CGAGACCC, the binding signal is -0.116 E-score. For CGGGATGA the value was -0.0551 E-score; for ACACGAAA, 0.118 E-score. For ACCAACGA the value was 0.102 E-score; for AAGGCTGT, -0.136 E-score. Under ACGCTGCT stands -0.0607 E-score; under ACGTAAGA, 0.197 E-score. The sequence ATGCTAAC displayed a binding signal of 0.117 E-score. Under AGACTCGA stands -0.136 E-score.

For GGCAAGCA, the binding signal was -0.268 E-score. Under AGCGTATG stands 0.126 E-score. Under ACTAATCT stands 0.218 E-score. Under AGCCAGTG stands -0.197 E-score. For the sequence CGAGGGCG, the binding signal was -0.284 E-score.

Consider CGTGATTA, for which the binding signal is 0.0497 E-score. The sequence TGGCTACA showed a binding signal of -0.171 E-score.
